Test results as given in PMC3904230 (Journal of the American Chemical Society, 2012).

Key:
Test in all cases: HPLC/LC-MS prenyl transfer assay
Assay type in all cases: biochemical
[1] = target: T1, Nf112230 (Aspergillus fischeri, UniProt A1D8I8); conditions: prenyl donor; acceptors 2, 4, 5; 50 mM Tris-HCl pH 7.5, 30 °C
T1 sequence (A1D8I8 1-454): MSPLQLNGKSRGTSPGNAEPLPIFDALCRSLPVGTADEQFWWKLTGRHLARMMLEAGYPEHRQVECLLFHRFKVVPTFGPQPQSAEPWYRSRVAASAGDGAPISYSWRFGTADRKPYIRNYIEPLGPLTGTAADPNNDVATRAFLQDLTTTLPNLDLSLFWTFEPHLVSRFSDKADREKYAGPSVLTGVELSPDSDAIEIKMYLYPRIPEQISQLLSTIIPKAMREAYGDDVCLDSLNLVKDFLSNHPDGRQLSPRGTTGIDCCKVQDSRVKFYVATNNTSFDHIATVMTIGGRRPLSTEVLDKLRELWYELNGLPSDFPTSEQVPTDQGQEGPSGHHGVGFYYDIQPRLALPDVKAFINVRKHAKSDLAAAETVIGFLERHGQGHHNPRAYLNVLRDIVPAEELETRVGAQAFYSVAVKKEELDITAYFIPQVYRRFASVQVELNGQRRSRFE

[2] = target: T2, Tt06703 (Trichophyton tonsurans, UniProt F2S700); conditions: prenyl donor; acceptors 2, 4, 5, 11; 50 mM Tris-HCl pH 7.5, 30 °C
T2 sequence (F2S700 1-436): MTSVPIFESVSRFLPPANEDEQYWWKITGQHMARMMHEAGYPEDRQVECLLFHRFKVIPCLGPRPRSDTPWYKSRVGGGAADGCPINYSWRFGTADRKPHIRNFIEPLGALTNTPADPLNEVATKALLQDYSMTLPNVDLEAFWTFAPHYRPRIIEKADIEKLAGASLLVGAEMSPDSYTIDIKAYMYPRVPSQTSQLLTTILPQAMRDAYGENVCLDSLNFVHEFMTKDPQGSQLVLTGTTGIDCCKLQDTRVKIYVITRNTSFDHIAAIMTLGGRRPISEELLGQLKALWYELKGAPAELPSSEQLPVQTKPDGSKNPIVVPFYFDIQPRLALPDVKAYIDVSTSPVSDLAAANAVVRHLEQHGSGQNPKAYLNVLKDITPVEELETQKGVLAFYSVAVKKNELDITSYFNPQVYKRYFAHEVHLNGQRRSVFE

[3] = target: T3, Mc03599 (Microsporum canis, UniProt C5FM58); conditions: prenyl donor; acceptors 2, 4, 5, 11; 50 mM Tris-HCl pH 7.5, 30 °C
T3 sequence (C5FM58 1-436): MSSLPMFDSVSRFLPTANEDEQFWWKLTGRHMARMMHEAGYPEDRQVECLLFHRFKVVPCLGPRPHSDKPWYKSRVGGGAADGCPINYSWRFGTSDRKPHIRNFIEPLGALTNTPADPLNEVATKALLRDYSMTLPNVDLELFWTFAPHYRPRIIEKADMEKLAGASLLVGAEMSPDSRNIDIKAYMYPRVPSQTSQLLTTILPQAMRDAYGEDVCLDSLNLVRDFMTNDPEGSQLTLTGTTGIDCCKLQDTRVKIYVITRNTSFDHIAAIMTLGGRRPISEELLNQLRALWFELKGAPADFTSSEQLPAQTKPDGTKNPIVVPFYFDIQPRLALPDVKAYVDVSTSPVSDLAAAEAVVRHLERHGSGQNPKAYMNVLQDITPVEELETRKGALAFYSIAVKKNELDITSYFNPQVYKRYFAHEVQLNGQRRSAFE

With `CC(C)=CCOP(=O)(O)OP(=O)(O)O` [DMAPP] the “HPLC/LC-MS prenyl transfer assay” value [1] was “these enzymes utilize DMAPP instead of GPP as the prenyl donor”, the “HPLC/LC-MS prenyl transfer assay” value [2] was “these enzymes utilize DMAPP instead of GPP as the prenyl donor” and the “HPLC/LC-MS prenyl transfer assay” value [3] was “these enzymes utilize DMAPP instead of GPP as the prenyl donor”.
